This is one part of the list. At the low end of the ranking the order means little.
molecular target: SIX1 homeodomain (reference allele) (UniProt Q15475); assay: universal protein binding microarray; conditions: Universal all-10-mer PBM (8x60K, AMADID 030236), 300 nM GST-tagged protein, Alexa Fluor 488 anti-GST; buffer, salt, pH and temperature not stated; high values mean tight binding; most listed sequences are background and not binding sites; double strand, one strand shown

Sequence | binding signal [E-score]
ACATCGCA | 0.152
ACACACCA | 0.124
CGTACCAG | -0.0214
CAACACGC | -0.0761
AGTTCTAG | -0.176
TTCATCAA | -0.223
AGGGGCGA | -0.15
GTATCAAC | 0.475
ACTCCCAG | -0.00561
AATTCCTC | -0.113
ACTGCGAT | 0.233
CCGTAGGA | -0.0605
ACCGTCAG | 0.000515
TTCCTAAA | -0.136
CCAATCGG | -0.0725
AGGTCTGG | -0.21
TAGAGCTA | -0.0278
AACCTTTA | -0.245
AGCCGTGC | -0.204
GATATTCA | 0.232
ACTCGAAC | -0.0186
ACTGGCTG | -0.0858
CCAGCGGG | 0.0974
GAGCACTA | -0.085
ACGCCATC | -0.0794

Sequence | binding signal [E-score]
AGTCGCTC | -0.308
CCCTTCCC | 0.2
ATTTACAG | -0.246
ACGTCAAT | -0.0725
ACTCCGAT | 0.206
CTACGCAC | -0.0382
AGTCGGGC | -0.0188
GCCACAGC | -0.0571
CGATCGAG | 0.21
ATGTCGCA | -0.0847
CAAGAGAA | -0.119
AAGCCACT | -0.204
AAAATGGT | 0.0437
ACATAGGC | 0.00408
CCATAGGA | 0.00464
CCCCCCTC | -0.0205
AATTGTTG | -0.308
GAGGCCGC | -0.184
GTGTTCCA | 0.0718
AGCCTGTG | 0.0426
GTACTCGA | 0.213
GCAGCCGA | -0.0389
ATTTCGGC | 0.0303
GGGAGCAC | 0.00475
ACCAGACC | 0.0699

Sequence | binding signal [E-score]
CCTTTTTA | -0.0661
CTGCCTAA | -0.143
ATGCTCTG | -0.157
CTTTATAC | 0.0599
CTGTACGC | -0.128
ACGTTACC | -0.152
ATACCTTG | 0.335
CAGCGATC | 0.265
AATTGGGG | 0.0748
CGCACAAA | -0.195
CAAACGTG | -0.237
CCTTCAAA | -0.159
ACCTCGAC | -0.203
CTCGTAAA | -0.227
CTTATTCA | -0.0942
AACTGTGC | -0.241
ACCATGAC | -0.0638
CGTTGTCA | -0.309
CGATATTA | 0.365
CTTGGGGA | 0.163
CAGCCCGG | -0.146
CACAGACC | -0.0529
CCAAAGAG | -0.21
AGCCTCCA | -0.251
AATTGTCG | -0.147

Sequence | binding signal [E-score]
ATCACCAT | 0.242
AATACCCT | 0.384
GGTCACAA | -0.0433
CCCAGAAC | -0.0814
TAGAATAA | 0.0676
TCGGGAGA | 0.0368
AGCCATAG | -0.0443
ATGAGCGC | -0.139
CAGAGCAA | -0.177
CCCCGTCA | -0.0181
GTTGACAA | -0.297
ACATGGTC | 0.0828
CCTGGGGC | -0.0201
CTGATAAG | 0.0735
GCACGTGA | -0.0895
ATGGTGCC | -0.034
TATCCAGA | 0.334
GGACCCAC | -0.101
CGAGATGC | 0.0578
ATCTAAGA | 0.115
CGGGTTCC | 0.141
GGAGATTA | 0.197
CATGTCGG | -0.0307
ATTCAGGA | 0.0546
CTTGCGGC | -0.163

Sequence | binding signal [E-score]
ATACCGCA | 0.406
GCCTCTCA | -0.223
CGTAGCAG | -0.0217
CCTACCAA | -0.0401
AGTGCCTG | -0.312
AGATTTCG | -0.202
GGTGTGGA | 0.275
CGGTCATC | 0.102
AAACTATT | -0.0843
CGGGGGGC | -0.0362
CTTCAAGA | -0.239
CATGCATG | 0.124
GACTACCC | -0.0809
GAGGTGCC | -0.216
CCCATGCG | -0.0695
AATATCGT | 0.309
CGAATAAA | -0.196
ACACTTTA | 0.0206
AGAATTCA | -0.181
CTCGCCAA | -0.253
CTGACGGC | -0.0186
AACCTGTC | -0.118
ACCGGACG | 0.0115
ACCGATAA | 0.0442
CTGGGTCA | 0.0912

Sequence | binding signal [E-score]
ACAGCGGA | 0.0507
CGAAAGCC | -0.244
CGGGGTGC | 0.058
CATTGCCA | -0.178
ACAGCCCG | -0.17
TAACCAAA | -0.213
CCACAGTA | 0.0344
CCACTCTA | -0.142
CACATTAA | -0.0436
TATACTAA | 0.127
ATAAATGA | 0.0885
ATTCCCGG | 0.0727
CACGTGGG | -0.048
GAAAATAC | 0.0716
GTAGTCCA | -0.147
GCGGGATA | 0.349
CGCGACGC | -0.157
AGTGCCCG | -0.124
CTGACGAC | -0.185
AGCCTTAG | -0.0156
ACGAAGAT | -0.0283
ATACAGGG | 0.295
CCCCCGGG | -0.205
AATAGAAG | -0.149
CTATCTGA | 0.231

Sequence | binding signal [E-score]
CATCGGAA | 0.00832
AGATGTCA | -0.0406
CAAGGATC | 0.351
CGGTACCA | 0.0128
GCATTAAA | -0.114
CATGGCAC | -0.02
GCATTGGC | -0.118
CGCTTTCC | -0.225
GACAAGGA | 0.0343
CCTTTTGC | -0.0617
AATGACCC | 0.0525
AGAAGGAC | -0.109
CGATGCGA | 0.104
ACCAGAGT | -0.0917
ACGCTGGG | -0.133
ACCAATCC | 0.0833
CGCAACAA | -0.351
ACTGATAT | 0.442
AGTCCTAA | -0.273
GTCACTTA | 0.0691
AGACCGTC | -0.0103
CAAAATAC | 0.0728
CTCAGCTA | -0.117
CTGTGAGC | 0.0561
AGCATTGC | -0.119

Sequence | binding signal [E-score]
ACTATCGC | 0.236
CTGGCCCA | -0.286
ACTCATGC | 0.00969
TAGACTAA | -0.0876
GCGATTTA | -0.0974
ATCCGAAG | 0.186
AGAAAGGA | -0.0443
GACTCACC | -0.132
GGTTCGCA | 0.0489
ATCGCATC | 0.327
ATAATGCA | 0.118
AATCTCAC | 0.0604
CGACACTA | 0.0163
AATACGTC | 0.205
CCATAGCA | -0.0149
TATTCCGA | 0.0657
AGAGTAAC | -0.196
CTCAGGCA | -0.0622
ACTGTGCT | -0.179
TAACCGGA | 0.0932
ATTAAAAG | -0.0997
CTTAGGTC | 0.0219
AACCTTAG | -0.00982
CAATTCTC | -0.0737
CACTCTCA | 0.0181

Sequence | binding signal [E-score]
ACTAGTAC | 0.0353
TCTAAAGA | -0.0807
ATGGCAGC | -0.117
GGTGTGCA | 0.129
GCTTTCCA | -0.303
ACGATTCA | 0.0697
CACAGTCA | -0.116
GAATAACC | -0.129
CCTCGAAG | -0.095
CTGGGTGC | -0.00704
CATGCAAA | -0.177
AGGATAGC | 0.229
AACGATCT | 0.176
AGGGGTGA | 0.0138
TACCTTGA | 0.139
CACTAGCC | 0.127
AGGGCCCT | -0.185
GCTTGTAA | -0.268
ATATAAGA | 0.303
ACACCGAA | 0.253
AATCAGCC | -0.0819
ACTGGGTA | 0.163
GGATTTTA | 0.0603
ACGCGTGG | 0.0293
CCACGATC | 0.195

Sequence | binding signal [E-score]
ACCCTGGA | -0.0147
CCTACGTC | -0.0266
CTCGCAAG | -0.19
CGCTCCTA | -0.0814
ACTCGAGA | 0.155
AGGGGGTC | -0.0137
AAAACGCT | -0.245
AGTACGGA | -0.0761
ATCTCTGG | 0.219
CCTCCTGA | 0.0769
AACCAGGT | -0.0907
TCAGAAAA | -0.142
AGGGGAGC | -0.0543
AAGGTTGG | -0.18
GGTATTAC | 0.385
ATGCTGTG | -0.0262
AGACACCT | 0.287
AGGGGTAG | 0.214
CACCAACA | -0.0418
TAAACTGA | 0.158
ATGGAGGG | 0.0583
TATACGGA | 0.28
TAACTTGA | 0.105
CCCGCCAC | 0.0338
GAATCTAA | -0.15

Sequence | binding signal [E-score]
ATGGTCAG | 0.00983
TAAAAACA | -0.114
AGGAGGCC | -0.195
AGTACAAG | -0.0699
CCCAGTAG | -0.0555
ACGTGTTG | -0.0112
CATTGTGG | -0.1
ATTGGCGG | -0.0821
AACTTCTA | -0.309
CGCACCAG | -0.0664
ACCGCCGA | 0.0208
GTCCCACA | -0.00498
AGCCCCCA | -0.186
CGCATTAA | -0.00684
CATCTCTC | -0.00136
CGATGACC | 0.0306
ATATCAGA | 0.408
CTCACAAA | 0.0269
CCTGTAAA | -0.204
TCAGTGGA | 0.0576
AGGTCGGA | 0.0758
TAAGGCCA | -0.27
GGTACCAC | -0.107
ACAACGAG | -0.198
ATAAGTCG | -0.0429

Sequence | binding signal [E-score]
GGATTCTA | 0.0841
AGTGAAAG | -0.129
CTAGCTAA | -0.0344
GGGTGGTA | 0.088
AGATACAC | 0.38
GCAAGCCC | -0.266
GCCCACTA | -0.224
AAGTCATC | -0.15
GGTTTTCA | -0.161
AGCTAACG | -0.207
GCCCACGA | -0.204
CCCGGATA | 0.424
AGCCTGCG | -0.0767
AGGTAAAA | -0.253
CGCAGTGC | -0.284
GGAGAACA | -0.095
AATCCCCG | 0.212
ACCCTGAA | 0.124
CCTAGTGA | 0.113
AGAGTCAC | -0.177
AGCTCGAA | -0.288
CTTCGTCC | -0.136
GGGAGGGA | 0.0773
CCAACTCC | -0.0817
TACCCCTA | 0.34

Sequence | binding signal [E-score]
CGTATGGA | 0.0654
AGGCTCAA | -0.165
CCAAGTCG | -0.0485
ATCCCAAA | 0.145
ATGCACGA | 0.136
TAATGCAA | -0.107
GTCTTAAC | -0.0945
CCCGCGCA | 0.0663
ATAGCACG | 0.0367
CCTGAACC | -0.000955
GAGGGCAC | -0.245
CGAGTGAG | 0.162
CCCACTTC | 0.0147
CCTCAAGG | 0.117
ACCTTCAA | -0.13
AATCCGCG | 0.2
ATAGAAAA | -0.17
TCGACGCA | -0.0232
ATCATGGA | 0.171
CGAGGAAA | -0.111
ATGGTAAT | 0.111
GACTGAGC | -0.112
CACGCGTA | 0.0305
CCACACTC | 0.0208
ATTGCCAG | 0.0364

Sequence | binding signal [E-score]
CAATGGTG | -0.0826
GCAACAGC | -0.191
AACATGTG | -0.104
ACTCGCAA | -0.116
CGGCCCGA | 0.0288
AGCTCGCA | -0.0771
ACCATACT | 0.0465
GTTAGAAA | -0.15
AATTTAAG | -0.138
AAATCTTG | -0.284
CGAACTAC | -0.0757
GGTCCTAC | -0.224
GCCAGCAA | -0.189
GCCCGATA | 0.33
CAGCGAAA | -0.251
CATGGGTC | 0.0895
CTCCCCTA | 0.152
GCCCGGAC | -0.201
TCCCTACA | 0.021

Source: PMC10668032
